Laboratory results taken from PMC5700166.
This is a selection; strong and weak results do not stand in their true shares. The list includes weakly bound sequences.

Tests used:
GST-Ap-NF-kB RHD = molecular target: T1, GST-Ap-NF-kB RHD (UniProt A0A913YAJ5); assay: protein-binding microarray (PBM); details: PBM: ~300 nM protein, 6 mM HEPES pH 7.8, 80 mM KCl, 0.5 mM EDTA, 0.5 mM EGTA, 6% glycerol, 35 ng/ul poly-dIdC, 1% milk, 1 h, room temperature; high values mean tight binding; double strand, one strand shown
T1 sequence: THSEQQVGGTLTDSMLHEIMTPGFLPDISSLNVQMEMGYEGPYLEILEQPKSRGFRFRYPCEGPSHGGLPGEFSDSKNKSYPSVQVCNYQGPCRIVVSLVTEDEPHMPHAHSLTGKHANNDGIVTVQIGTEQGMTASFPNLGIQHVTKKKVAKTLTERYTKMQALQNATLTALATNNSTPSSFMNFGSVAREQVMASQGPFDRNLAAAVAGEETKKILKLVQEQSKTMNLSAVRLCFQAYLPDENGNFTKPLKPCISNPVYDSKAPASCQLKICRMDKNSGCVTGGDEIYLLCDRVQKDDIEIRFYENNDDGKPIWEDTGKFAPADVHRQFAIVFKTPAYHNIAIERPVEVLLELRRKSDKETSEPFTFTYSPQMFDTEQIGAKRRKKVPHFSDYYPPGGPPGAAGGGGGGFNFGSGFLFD

GST-Dm-Relish = molecular target: T2, GST-Dm-Relish (UniProt Q94527); assay: protein-binding microarray (PBM); details: PBM: ~300 nM protein, 6 mM HEPES pH 7.8, 80 mM KCl, 0.5 mM EDTA, 0.5 mM EGTA, 6% glycerol, 35 ng/ul poly-dIdC, 1% milk, 1 h, room temperature; Ap Aiptasia and Nv Nematostella (sea anemones) / Co Capsaspora / Aq Amphimedon (sponge) / Dm Drosophila / Hu human; RHD is the Rel homology domain; high values mean tight binding; most listed sequences are background and not binding sites; double strand, one strand shown
T2 sequence: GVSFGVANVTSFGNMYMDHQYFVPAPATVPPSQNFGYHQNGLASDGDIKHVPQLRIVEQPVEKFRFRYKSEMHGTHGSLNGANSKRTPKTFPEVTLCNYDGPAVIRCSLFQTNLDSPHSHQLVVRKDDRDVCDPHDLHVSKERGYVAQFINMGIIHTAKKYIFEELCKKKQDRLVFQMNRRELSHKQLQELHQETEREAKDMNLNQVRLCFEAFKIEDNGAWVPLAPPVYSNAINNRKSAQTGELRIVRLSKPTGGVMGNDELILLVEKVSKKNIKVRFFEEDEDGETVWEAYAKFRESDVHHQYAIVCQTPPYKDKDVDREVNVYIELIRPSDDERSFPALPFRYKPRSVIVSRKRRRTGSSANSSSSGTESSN

Row | Sequence | binding signal (GST-Ap-NF-kB RHD) [z-score] | binding signal (GST-Dm-Relish) [z-score]
1 | CCGATTAACATCACTCCCTAAAATGATGTTAATCGGGTCTTGATTCGCTTGACGCTGCTG | 1.35 | 0.645
2 | CCGATTAACATCACCCCTTCCCCTGATGTTAATCGGGTCTTGATTCGCTTGACGCTGCTG | 4.7 | 2.5
3 | CCGATTAACATCATGTTAGGGAATGATGTTAATCGGGTCTTGATTCGCTTGACGCTGCTG | 1.38 | 0.983
4 | CCGATTAACATCACTTTGGGAAATGATGTTAATCGGGTCTTGATTCGCTTGACGCTGCTG | 0.407 | 0.742
5 | CCGATTAACATCAATCCCCACATTGATGTTAATCGGGTCTTGATTCGCTTGACGCTGCTG | 3.58 | 2.63
6 | CCGATTAACATCAGGGGAGATAATGATGTTAATCGGGTCTTGATTCGCTTGACGCTGCTG | 5.17 | 1.79
7 | CCGATTAACATCAATCGGGAAATTGATGTTAATCGGGTCTTGATTCGCTTGACGCTGCTG | 1.3 | 0.6
8 | CCGATTAACATCAGGGGGACTACTGATGTTAATCGGGTCTTGATTCGCTTGACGCTGCTG | 6.49 | 6.39
9 | CCGATTAACATCAAGGGGAAAACTGATGTTAATCGGGTCTTGATTCGCTTGACGCTGCTG | 7.51 | 5.32
10 | CCGATTAACATCAATTCCCCAGGTGATGTTAATCGGGTCTTGATTCGCTTGACGCTGCTG | 5.33 | 2.37
11 | CCGATTAACATCATTCCCGGAAATGATGTTAATCGGGTCTTGATTCGCTTGACGCTGCTG | 0.905 | 1.05
12 | CCGATTAACATCACCATGGGAAATGATGTTAATCGGGTCTTGATTCGCTTGACGCTGCTG | 1.25 | 0.699
13 | CCGATTAACATCAGGGGCTACCCTGATGTTAATCGGGTCTTGATTCGCTTGACGCTGCTG | 4.03 | 3.48
14 | CCGATTAACATCAACTTTGGGAATGATGTTAATCGGGTCTTGATTCGCTTGACGCTGCTG | 0.544 | 0.661
15 | CCGATTAACATCAGTGGGAAACATGATGTTAATCGGGTCTTGATTCGCTTGACGCTGCTG | 0.739 | 0.501
16 | CCGATTAACATCAGAACATCCCCTGATGTTAATCGGGTCTTGATTCGCTTGACGCTGCTG | 6.05 | 6.69
17 | CCGATTAACATCAACTCGGGAAATGATGTTAATCGGGTCTTGATTCGCTTGACGCTGCTG | 1.08 | 0.696
18 | CCGATTAACATCAGGGGGTACAATGATGTTAATCGGGTCTTGATTCGCTTGACGCTGCTG | 4.98 | 2.37
19 | CCGATTAACATCACGGGGATTTCTGATGTTAATCGGGTCTTGATTCGCTTGACGCTGCTG | 9.25 | 9.88
20 | CCGATTAACATCAGTTTGGGAAATGATGTTAATCGGGTCTTGATTCGCTTGACGCTGCTG | 0.864 | 0.71
21 | CCGATTAACATCACGGGAACTCCTGATGTTAATCGGGTCTTGATTCGCTTGACGCTGCTG | 3.24 | 6.49
22 | CCGATTAACATCAGGGGATTCGATGATGTTAATCGGGTCTTGATTCGCTTGACGCTGCTG | 5.58 | 3.8
23 | CCGATTAACATCAGGGGATTTCATGATGTTAATCGGGTCTTGATTCGCTTGACGCTGCTG | 9.36 | 8.36
24 | CCGATTAACATCAGGACGCCCCCTGATGTTAATCGGGTCTTGATTCGCTTGACGCTGCTG | 6.15 | 3.85
25 | CCGATTAACATCATGGGTGGGAATGATGTTAATCGGGTCTTGATTCGCTTGACGCTGCTG | 1.4 | 1.66
26 | CCGATTAACATCAAACTGGGAAATGATGTTAATCGGGTCTTGATTCGCTTGACGCTGCTG | 1.13 | 0.438
27 | CCGATTAACATCAAGCAATCCCCTGATGTTAATCGGGTCTTGATTCGCTTGACGCTGCTG | 6.44 | 5.11
28 | CCGATTAACATCAGGGAATCACATGATGTTAATCGGGTCTTGATTCGCTTGACGCTGCTG | 1.95 | 9.15
29 | CCGATTAACATCAGGGAACTCCATGATGTTAATCGGGTCTTGATTCGCTTGACGCTGCTG | 2.66 | 6.21
